Measured values taken from PubChem BioAssay (NCI).
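All cell lines were grown in 96-well plates and treated with compound for 48 hours. Here, GI50 denotes the concentration required for 50% inhibition of growth. At the TGI there is no net growth.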 Peptide text beside a SMILES is read from it.

Each compound was assayed on NCI-H322M lung (assay: NCI tumour cell line growth inhibition, 48 h).

Q: How did the GI50 turn out when Cc1n(Cc2ccc3ccccc3c2)cc[n+]1Cc1ccc2ccccc2c1 was run?
A: 2.46 µM

Q: And the TGI?
A: 10.4 µM

Q: For CCC(C)C(NC(=O)C(CCCCN)NC(=O)C(NC(=O)C(CCC(N)=O)NC(=O)C(N)CCCNC(=N)N)C(C)CC)C(=O)NC(Cc1c[nH]c2ccccc12)C(=O)NC(Cc1ccccc1)C(=O)NC(CCC(N)=O)C(=O)NC(CC(N)=O)C(=O)NC(CCCNC(=N)N)C(=O)NC(CCCNC(=N)N)C(=O)NC(CCSC)C(=O)NC(CCCCN)C(=O)NC(Cc1c[nH]c2ccccc12)C(=O)NC(CCCCN)C(=O)NC(CCCCN)C(=O)N1CCCC1C(=O)NC(C)C(=O)NC(CCCCN)C(=O)NC(CCCNC(=N)N)C(=O)NC(CCCCN)C(=O)NC(CC(C)C)C(=O)NC(Cc1ccccc1)C(=O)NCC(=O)O (stereo not drawn) (H-RQIKIWFQNRRMKWKKPAKRKLFG-OH; configuration not given here), which TGI is on record?
A: > 25 µM

Q: Which TGI does the source give for CCOC(=O)C(N)CSC(=O)NC (stereo not drawn) here?
A: 620 µM

Q: With O=C1c2ccn(CCCCNC(CO)(CO)CO)c2C(=O)c2c1c(O)c1ccccc1c2O as the compound, how does the GI50 read?
A: 0.837 µM

Q: And the TGI?
A: 2.12 µM

Q: With C=C1C(=O)O[C@H]2[C@H]1[C@@H](OC(=O)C=C(C)C)CC1=C[C@@H](C[C@@]3(C)O[C@@H]23)OC1=O as the compound, how does the TGI read?
A: 26.8 µM

Q: How did the TGI turn out when N#CC(NNC(=O)Cc1ccccc1)c1ccccc1O (stereo not drawn) was run?
A: > 100 µM

Q: How did the TGI turn out when CC(=O)c1sc2c(c1OC(=O)c1cccs1)c(=O)n(-c1ccccc1)c(=S)n2-c1ccccc1 was run?
A: 45.5 µM

Q: For CC12CCC(C(=O)OC1=O)C2(C)C (stereo not drawn), which TGI is on record?
A: > 100 µM

Q: For O=C(O)c1nc(-c2ccccn2)c(-c2ccccn2)nc1C(=O)O, which TGI is on record?
A: 11.6 µM

Q: How did the GI50 turn out when C#C[C@]1(O)CC[C@H]2[C@@H]3CC=C4c5sc(Nc6ccccc6)nc5CC[C@]4(C)[C@H]3CC[C@@]21C was run?
A: 3.56 µM

Q: What about the TGI of the same compound?
A: 17.8 µM

Q: CC(C)CC1[C@@H](OCc2ccccc2)COS(=O)N1Cc1ccccc1 (stereo partly drawn) was tested. Which TGI did it give?
A: > 100 µM

Q: How did the TGI turn out when CC1(C#N)CC(C)(C)C(/C=C2/CC(C)(C)C(/C=C3/OC(=N)CC3(C)C)=N2)=N1 (stereo not drawn) was run?
A: > 100 µM

Q: How did the GI50 turn out when Nc1nc(Br)nc2c1ncn2C1CC(O)C(CO)O1 (stereo not drawn) was run?
A: > 100 µM

Q: And the TGI?
A: > 100 µM

Q: With CSC1(CC(=O)N(C)C)C(=O)Nc2ccccc21 (stereo not drawn) as the compound, how does the TGI read?
A: > 100 µM

Q: With Cc1cn2c(=O)c3ccccc3nc2s1 as the compound, how does the TGI read?
A: > 100 µM

Q: With C#CC(=O)Nc1cccc(Nc2nc3c(c(NCc4ccccc4)n2)CCCC3)c1 as the compound, how does the GI50 read?
A: 2 µM

Q: What about the TGI of the same compound?
A: 4 µM

Q: For COC(=O)C1=C(C)NC(C)=C(C(=O)OC)C1c1ccc(/[N+]([O-])=C/c2ccccc2)cc1, which TGI is on record?
A: > 100 µM

Q: Which TGI does the source give for N#CC1(C2SCCS2=O)C2=C(C(=O)c3ccccc3C2=O)N2CCCC21 (stereo not drawn) here?
A: 9.17 µM

Q: How did the TGI turn out when CN1CCOC1(C)CO (stereo not drawn) was run?
A: > 100 µM

Q: Clc1ccc(-c2c(C3=NCCN3)nnn2-c2ccc(Cl)cc2)cc1 was tested. Which TGI did it give?
A: > 100 µM

Q: Cc1cn(C2CC(N(O)Cc3ccccc3)C(CO)O2)c(=O)[nH]c1=O (stereo not drawn) was tested. Which TGI did it give?
A: > 100 µM

Q: With CC(=O)OCC1OC([S-])C(OC(C)=O)C(OC(C)=O)C1OC(C)=O.CC[PH+](CC)CC.CC[PH+](CC)CC.[Au].[Au] (stereo not drawn) as the compound, how does the GI50 read?
A: 1.4 µM

Q: And the TGI?
A: 2.7 µM

Q: COc1ccc(CCNC2=CC(=O)c3ncccc3C2=O)cc1OC was tested. Which TGI did it give?
A: 2.95 µM

Q: CCCS(=O)(=O)Nc1ccc(Nc2c3ccccc3nc3ccccc23)c(OC)c1 was tested. Which TGI did it give?
A: 10.6 µM

Q: With Cc1ccc(N(CSc2ccc(Cl)cc2)CSc2ccc(Cl)cc2)cc1 as the compound, how does the GI50 read?
A: 2.72 µM

Q: What about the TGI of the same compound?
A: 42.3 µM

Q: Which TGI does the source give for O=C(Nc1ccc([N+](=O)[O-])cc1)C1C(=O)C(=O)N(c2ccc([N+](=O)[O-])cc2)C1=O (stereo not drawn) here?
A: > 100 µM

Q: With CCOC(=O)C1=C(C)N(N)C(=S)NC1c1ccc(C)cc1 (stereo not drawn) as the compound, how does the GI50 read?
A: 5.58 µM

Q: What about the TGI of the same compound?
A: > 100 µM

Q: How did the GI50 turn out when COc1cc(NC(C)CCCN)c2nccc(C)c2c1OC (stereo not drawn) was run?
A: 15 µM

Q: What about the TGI of the same compound?
A: 30.4 µM

Q: Which TGI does the source give for CSC1=C(SC)SC(=C2SC3=C(SC(=C4SCCS4)S3)S2)S1 here?
A: > 100 µM

Q: How did the GI50 turn out when OCCCCC#Cc1ccccc1C#Cc1cccc(O)c1 was run?
A: 14.6 µM

Q: What about the TGI of the same compound?
A: 35.5 µM

Q: For CCCCN1C=CN2c3nc4cc(C)c(C)cc4n3C(C(=O)OC)=C(C(=O)OC)C12 (stereo not drawn), which TGI is on record?
A: > 100 µM

Q: Which GI50 does the source give for Cc1c[n+](Cc2ccc3ccccc3c2)cn1Cc1ccc2ccccc2c1 here?
A: 2.87 µM

Q: What about the TGI of the same compound?
A: 10.3 µM

Q: How did the TGI turn out when COc1cc2c(cc1OC)C(O)[C@H](Br)C(C)(C)O2 (stereo partly drawn) was run?
A: > 100 µM

Q: For CC(=O)Oc1ccccc1C(=O)N=C1[Se]CCCN1C(=O)c1ccccc1OC(C)=O, which GI50 is on record?
A: 2.3 µM

Q: What about the TGI of the same compound?
A: 6.98 µM

Q: How did the GI50 turn out when Cc1[nH][nH]c(=O)c1C=Nc1ccc(-c2nc3ccccc3[nH]2)cc1 was run?
A: 0.139 µM

Q: And the TGI?
A: 3.09 µM

Q: For CCN(CC)CCn1nc(N)c2nc3cc(Cl)ccc3nc21, which TGI is on record?
A: > 100 µM

Q: What does the source list for COc1ccc(C2C(C#N)=C(N)OC3=C2COc2ccc(F)cc23)cc1OC (stereo not drawn)?
A: GI50: 21.7 µM; TGI: 72.8 µM

Q: CCCCCc1c(C)[nH]c(/C=C2\N=C(c3ccc[nH]3)C=C2CC)c1C was tested. Which GI50 did it give?
A: 0.0304 µM

Q: What about the TGI of the same compound?
A: 0.788 µM

Q: With CCOC(=O)C1(C(=O)OCC)CN(CC)CN(c2ccccc2)C1 as the compound, how does the TGI read?
A: > 100 µM

Q: How did the TGI turn out when CNC(=S)N/N=C(C)\C(=N/NC(=S)NC)c1ccccc1 was run?
A: > 100 µM

Q: How did the TGI turn out when Cc1cn(C2CC(ON3C(=O)c4ccccc4C3=O)C(CO)O2)c(=O)[nH]c1=O (stereo not drawn) was run?
A: > 10 µM

Q: O=C1/C(=C\c2ccc([N+](=O)[O-])o2)SC2N=C(COc3ccc(Cl)cc3)NN12 (stereo not drawn) was tested. Which TGI did it give?
A: 35.1 µM

Q: Which GI50 does the source give for O=C(Nc1cccc(Cl)c1Cl)c1cccc(NC2=C(Cl)C(=O)N(Cc3ccccc3)C2=O)c1 here?
A: > 100 µM

Q: And the TGI?
A: > 100 µM

Q: For COc1ccc2c(c1)CC[C@@H]1[C@@H]2CC[C@]2(C)C(=O)/C(=C/c3ccc(OC)c(OC)c3)C[C@@H]12, which TGI is on record?
A: > 100 µM

Q: For CN(C)C(=O)NCCN1CCCCCc2ccccc21, which TGI is on record?
A: > 100 µM

Q: With O=C(/C=C/c1c(O)ccc2ccccc12)c1ccc2ccccc2c1 as the compound, how does the TGI read?
A: > 100 µM

Q: Which TGI does the source give for CC(C)c1ccccc1S(=O)c1ccccc1C(C)(C)O (stereo not drawn) here?
A: > 100 µM
